The list shows a part of the results.
Experiments:
Assay in all cases: glycan array binding signal (z-score within array); higher = stronger binding
Conditions in all cases: glycan notation: IUPAC condensed, linker removed
[1] = target: Fuc(a1-2)Gal6S(b1-3)GlcNAc
Outline: (§1)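 The binding signal is a Z-score computed within each array. Data were drawn from 3228 arrays in the Consortium for Functional Glycomics database, restricted to those with a known protein sequence. Scores were averaged over arrays of the same protein sequence at different concentrations or buffers, and over linkers, and negative values can be taken as non-binding.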

[2] = target: Fuc(a1-2)Gal6S(b1-3)GlcNAc6S
Outline: as §1

Fuc(a1-2)Gal6S(b1-4)Glc = target: Fuc(a1-2)Gal6S(b1-4)Glc
Outline: as §1

[3] = target: Fuc(a1-2)Gal6S(b1-4)Glc6S
Outline: as §1

Fuc(a1-2)[Gal(a1-3)]Gal = target: Fuc(a1-2)[Gal(a1-3)]Gal
Outline: as §1

[4] = target: Fuc(a1-2)[Gal(a1-3)]Gal(b1-3)GalNAc
Outline: as §1

[5] = target: Fuc(a1-2)[Gal(a1-3)]Gal(b1-3)GalNAc(b1-3)Gal(a1-4)Gal(b1-4)Glc
Outline: as §1

[6] = target: Fuc(a1-2)[Gal(a1-3)]Gal(b1-3)GlcNAc
Outline: as §1

[7] = target: Fuc(a1-2)[Gal(a1-3)]Gal(b1-3)GlcNAc(b1-2)Man(a1-3)[Fuc(a1-2)[Gal(a1-3)]Gal(b1-3)GlcNAc(b1-2)Man(a1-6)]Man(b1-4)GlcNAc(b1-4)GlcNAc
Outline: as §1

[8] = target: Fuc(a1-2)[Gal(a1-3)]Gal(b1-3)GlcNAc(b1-2)Man(a1-3)[Fuc(a1-2)[Gal(a1-3)]Gal(b1-3)GlcNAc(b1-2)Man(a1-6)]Man(b1-4)GlcNAc(b1-4)[Fuc(a1-6)]GlcNAc
Outline: as §1

[9] = target: Fuc(a1-2)[Gal(a1-3)]Gal(b1-3)GlcNAc(b1-3)GalNAc
Outline: as §1

[10] = target: Fuc(a1-2)[Gal(a1-3)]Gal(b1-3)GlcNAc(b1-6)GalNAc
Outline: as §1

[11] = target: Fuc(a1-2)[Gal(a1-3)]Gal(b1-4)Glc
Outline: as §1

[12] = target: Fuc(a1-2)[Gal(a1-3)]Gal(b1-4)GlcNAc
Outline: as §1

[13] = target: Fuc(a1-2)[Gal(a1-3)]Gal(b1-4)GlcNAc(b1-2)Man
Outline: as §1

[14] = target: Fuc(a1-2)[Gal(a1-3)]Gal(b1-4)GlcNAc(b1-2)Man(a1-3)[Fuc(a1-2)[Gal(a1-3)]Gal(b1-4)GlcNAc(b1-2)Man(a1-6)]Man(b1-4)GlcNAc(b1-4)GlcNAc
Outline: as §1

[15] = target: Fuc(a1-2)[Gal(a1-3)]Gal(b1-4)GlcNAc(b1-2)Man(a1-3)[Fuc(a1-2)[Gal(a1-3)]Gal(b1-4)GlcNAc(b1-2)Man(a1-6)]Man(b1-4)GlcNAc(b1-4)[Fuc(a1-6)]GlcNAc
Outline: as §1

[16] = target: Fuc(a1-2)[Gal(a1-3)]Gal(b1-4)GlcNAc(b1-3)GalNAc
Outline: as §1

[17] = target: Fuc(a1-2)[Gal(a1-3)]Gal(b1-4)GlcNAc(b1-3)[Fuc(a1-2)[Gal(a1-3)]Gal(b1-4)GlcNAc(b1-6)]GalNAc
Outline: as §1

[18] = target: Fuc(a1-2)[Gal(a1-3)]Gal(b1-4)GlcNAc(b1-6)GalNAc
Outline: as §1

[19] = target: Fuc(a1-2)[Gal(a1-3)]Gal(b1-4)[Fuc(a1-3)]Glc
Outline: as §1

[20] = target: Fuc(a1-2)[Gal(a1-3)]Gal(b1-4)[Fuc(a1-3)]GlcNAc
Outline: as §1

[21] = target: Fuc(a1-2)[Gal(a1-3)]Gal(b1-4)[Fuc(a1-3)]GlcNAc(b1-3)GalNAc
Outline: as §1

[22] = target: Fuc(a1-2)[Gal(a1-4)]Gal(b1-4)GlcNAc
Outline: as §1

[23] = target: Fuc(a1-2)[GalNAc(a1-3)]Gal
Outline: as §1

[24] = target: Fuc(a1-2)[GalNAc(a1-3)]Gal(b1-3)GalNAc(a1-3)[Fuc(a1-2)]Gal(b1-4)GlcNAc
Outline: as §1

[25] = target: Fuc(a1-2)[GalNAc(a1-3)]Gal(b1-3)GalNAc(b1-3)Gal(a1-4)Gal(b1-4)Glc
Outline: as §1

[26] = target: Fuc(a1-2)[GalNAc(a1-3)]Gal(b1-3)GlcNAc
Outline: as §1

[27] = target: Fuc(a1-2)[GalNAc(a1-3)]Gal(b1-3)GlcNAc(b1-2)Man(a1-3)[Fuc(a1-2)[GalNAc(a1-3)]Gal(b1-3)GlcNAc(b1-2)Man(a1-6)]Man(b1-4)GlcNAc(b1-4)GlcNAc
Outline: as §1

[28] = target: Fuc(a1-2)[GalNAc(a1-3)]Gal(b1-3)GlcNAc(b1-2)Man(a1-3)[Fuc(a1-2)[GalNAc(a1-3)]Gal(b1-3)GlcNAc(b1-2)Man(a1-6)]Man(b1-4)GlcNAc(b1-4)[Fuc(a1-6)]GlcNAc
Outline: as §1

[29] = target: Fuc(a1-2)[GalNAc(a1-3)]Gal(b1-3)GlcNAc(b1-3)GalNAc
Outline: as §1

[30] = target: Fuc(a1-2)[GalNAc(a1-3)]Gal(b1-3)GlcNAc(b1-6)GalNAc
Outline: as §1

[31] = target: Fuc(a1-2)[GalNAc(a1-3)]Gal(b1-4)Glc
Outline: as §1

[32] = target: Fuc(a1-2)[GalNAc(a1-3)]Gal(b1-4)GlcNAc
Outline: as §1

[33] = target: Fuc(a1-2)[GalNAc(a1-3)]Gal(b1-4)GlcNAc(b1-2)Man
Outline: as §1

[34] = target: Fuc(a1-2)[GalNAc(a1-3)]Gal(b1-4)GlcNAc(b1-2)Man(a1-3)[Fuc(a1-2)[GalNAc(a1-3)]Gal(b1-4)GlcNAc(b1-2)Man(a1-6)]Man(b1-4)GlcNAc(b1-4)GlcNAc
Outline: as §1

[35] = target: Fuc(a1-2)[GalNAc(a1-3)]Gal(b1-4)GlcNAc(b1-2)Man(a1-3)[Fuc(a1-2)[GalNAc(a1-3)]Gal(b1-4)GlcNAc(b1-2)Man(a1-6)]Man(b1-4)GlcNAc(b1-4)[Fuc(a1-6)]GlcNAc
Outline: as §1

[36] = target: Fuc(a1-2)[GalNAc(a1-3)]Gal(b1-4)GlcNAc(b1-3)Gal(b1-4)GlcNAc
Outline: as §1

[37] = target: Fuc(a1-2)[GalNAc(a1-3)]Gal(b1-4)GlcNAc(b1-3)Gal(b1-4)GlcNAc(b1-3)Gal(b1-4)GlcNAc
Outline: as §1

[38] = target: Fuc(a1-2)[GalNAc(a1-3)]Gal(b1-4)GlcNAc(b1-3)GalNAc
Outline: as §1

[39] = target: Fuc(a1-2)[GalNAc(a1-3)]Gal(b1-4)GlcNAc(b1-3)[Fuc(a1-2)[GalNAc(a1-3)]Gal(b1-4)GlcNAc(b1-6)]GalNAc
Outline: as §1

[40] = target: Fuc(a1-2)[GalNAc(a1-3)]Gal(b1-4)GlcNAc(b1-6)GalNAc
Outline: as §1

[41] = target: Fuc(a1-2)[GalNAc(a1-3)]Gal(b1-4)[Fuc(a1-3)]GlcNAc
Outline: as §1

[42] = target: Fuc(a1-2)[GalNAc(a1-3)]Gal(b1-4)[Fuc(a1-3)]GlcNAc(b1-3)GalNAc
Outline: as §1

[43] = target: Fuc(a1-2)[GalNAc(a1-4)]Gal(b1-4)GlcNAc
Outline: as §1

B1: LSL-150 (Laetiporus sulphureus), Q7Z8V1 (protein)
chain: MTDIYIPPEGLYFRLLGFASRQVIFARNSPSPDVGLSPVNDQATDQYFSLIYGTGEHAGLYAIKSKATGKVLFSRRPAEPYVGQIDGDGRYPDNWFKIEPGKTYLSKYFRLVQPSTGTALVSRTHLQPYFWNHPQTEVFDDQYFTFLFEDHHHHHH
[1]
  glycan array binding signal (z-score): -0.201
[2]
  glycan array binding signal (z-score): -0.195
Fuc(a1-2)Gal6S(b1-4)Glc
  glycan array binding signal (z-score): -0.208
[3]
  glycan array binding signal (z-score): -0.204
Fuc(a1-2)[Gal(a1-3)]Gal
  glycan array binding signal (z-score): -0.199
[4]
  glycan array binding signal (z-score): -0.208
[5]
  glycan array binding signal (z-score): -0.208
[6]
  glycan array binding signal (z-score): -0.206
[7]
  glycan array binding signal (z-score): -0.205
[8]
  glycan array binding signal (z-score): -0.207
[9]
  glycan array binding signal (z-score): -0.203
[10]
  glycan array binding signal (z-score): -0.208
[11]
  glycan array binding signal (z-score): -0.201
[12]
  glycan array binding signal (z-score): -0.209
[13]
  glycan array binding signal (z-score): -0.208
[14]
  glycan array binding signal (z-score): -0.209
[15]
  glycan array binding signal (z-score): -0.202
[16]
  glycan array binding signal (z-score): -0.21
[17]
  glycan array binding signal (z-score): -0.204
[18]
  glycan array binding signal (z-score): -0.207
[19]
  glycan array binding signal (z-score): -0.2
[20]
  glycan array binding signal (z-score): -0.206
[21]
  glycan array binding signal (z-score): -0.199
[22]
  glycan array binding signal (z-score): -0.204
[23]
  glycan array binding signal (z-score): -0.207
[24]
  glycan array binding signal (z-score): -0.21
[25]
  glycan array binding signal (z-score): -0.209
[26]
  glycan array binding signal (z-score): -0.214
[27]
  glycan array binding signal (z-score): -0.208
[28]
  glycan array binding signal (z-score): -0.209
[29]
  glycan array binding signal (z-score): -0.212
[30]
  glycan array binding signal (z-score): -0.208
[31]
  glycan array binding signal (z-score): -0.197
[32]
  glycan array binding signal (z-score): -0.211
[33]
  glycan array binding signal (z-score): -0.208
[34]
  glycan array binding signal (z-score): -0.208
[35]
  glycan array binding signal (z-score): -0.201
[36]
  glycan array binding signal (z-score): 0.142
[37]
  glycan array binding signal (z-score): 2.99
[38]
  glycan array binding signal (z-score): -0.211
[39]
  glycan array binding signal (z-score): -0.203
[40]
  glycan array binding signal (z-score): -0.21
[41]
  glycan array binding signal (z-score): -0.205
[42]
  glycan array binding signal (z-score): -0.203
[43]
  glycan array binding signal (z-score): -0.196

From the supplement of paper PMC8728848
